Results reported in the supplement of paper PMC8728848.
The other results are listed elsewhere or left out.

Experiments:
Assay in all cases: glycan array binding signal (z-score within array); higher = stronger binding
Conditions in all cases: glycan notation: IUPAC condensed, linker removed
Gal(a1-6)Glc = molecular target: Gal(a1-6)Glc
Outline: (§1)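 The binding signal is a Z-score computed within each array and averaged over linkers. Arrays of the same protein sequence at different concentrations or buffers were also averaged together. Data originate from 3228 arrays in the Consortium for Functional Glycomics database, kept only where the protein sequence was available.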

Gal(b1-2)Gal = molecular target: Gal(b1-2)Gal
Outline: as §1

Gal(b1-3)Gal = molecular target: Gal(b1-3)Gal
Outline: as §1

Gal(b1-3)Gal(b1-4)GlcNAc = molecular target: Gal(b1-3)Gal(b1-4)GlcNAc
Outline: as §1

Gal(b1-3)GalNAc = molecular target: Gal(b1-3)GalNAc
Outline: as §1

[1] = molecular target: Gal(b1-3)GalNAc(a1-3)[Fuc(a1-2)]Gal(b1-4)Glc
Outline: as §1

[2] = molecular target: Gal(b1-3)GalNAc(a1-3)[Fuc(a1-2)]Gal(b1-4)GlcNAc
Outline: as §1

Gal(b1-3)GalNAc(b1-3)Gal = molecular target: Gal(b1-3)GalNAc(b1-3)Gal
Outline: as §1

[3] = molecular target: Gal(b1-3)GalNAc(b1-3)Gal(a1-4)Gal(b1-4)Glc
Outline: as §1

[4] = molecular target: Gal(b1-3)GalNAc(b1-3)Gal(b1-4)Glc
Outline: as §1

[5] = molecular target: Gal(b1-3)GalNAc(b1-3)Gal(b1-4)GlcNAc
Outline: as §1

[6] = molecular target: Gal(b1-3)GalNAc(b1-4)Gal(b1-4)Glc
Outline: as §1

[7] = molecular target: Gal(b1-3)GalNAc(b1-4)[Neu5Ac(a2-3)]Gal(b1-4)Glc
Outline: as §1

Gal(b1-3)GlcNAc = molecular target: Gal(b1-3)GlcNAc
Outline: as §1

[8] = molecular target: Gal(b1-3)GlcNAc(a1-3)Gal(b1-4)GlcNAc
Outline: as §1

[9] = molecular target: Gal(b1-3)GlcNAc(a1-6)Gal(b1-4)GlcNAc
Outline: as §1

Gal(b1-3)GlcNAc(b1-2)Man = molecular target: Gal(b1-3)GlcNAc(b1-2)Man
Outline: as §1

[10] = molecular target: Gal(b1-3)GlcNAc(b1-2)Man(a1-3)[Gal(b1-3)GlcNAc(b1-2)Man(a1-6)]Man(b1-4)GlcNAc(b1-4)GlcNAc
Outline: as §1

[11] = molecular target: Gal(b1-3)GlcNAc(b1-2)Man(a1-3)[Gal(b1-3)GlcNAc(b1-2)Man(a1-6)]Man(b1-4)GlcNAc(b1-4)[Fuc(a1-6)]GlcNAc
Outline: as §1

[12] = molecular target: Gal(b1-3)GlcNAc(b1-2)Man(a1-3)[GlcNAc(b1-4)][Gal(b1-3)GlcNAc(b1-2)Man(a1-6)]Man(b1-4)GlcNAc(b1-4)GlcNAc
Outline: as §1

[13] = molecular target: Gal(b1-3)GlcNAc(b1-2)[Gal(b1-3)GlcNAc(b1-6)]Man(a1-6)[Gal(b1-3)GlcNAc(b1-2)Man(a1-3)]Man(b1-4)GlcNAc(b1-4)GlcNAc
Outline: as §1

[14] = molecular target: Gal(b1-3)GlcNAc(b1-3)Gal(b1-3)GlcNAc
Outline: as §1

[15] = molecular target: Gal(b1-3)GlcNAc(b1-3)Gal(b1-4)Glc
Outline: as §1

[16] = molecular target: Gal(b1-3)GlcNAc(b1-3)Gal(b1-4)GlcNAc
Outline: as §1

[17] = molecular target: Gal(b1-3)GlcNAc(b1-3)Gal(b1-4)GlcNAc(b1-2)Man(a1-3)[Gal(b1-3)GlcNAc(b1-3)Gal(b1-4)GlcNAc(b1-2)Man(a1-6)]Man(b1-4)GlcNAc(b1-4)GlcNAc
Outline: as §1

[18] = molecular target: Gal(b1-3)GlcNAc(b1-3)Gal(b1-4)GlcNAc(b1-2)[Gal(b1-3)GlcNAc(b1-3)Gal(b1-4)GlcNAc(b1-6)]Man(a1-6)[Gal(b1-3)GlcNAc(b1-3)Gal(b1-4)GlcNAc(b1-2)Man(a1-3)]Man(b1-4)GlcNAc(b1-4)[Fuc(a1-6)]GlcNAc
Outline: as §1

[19] = molecular target: Gal(b1-3)GlcNAc(b1-3)Gal(b1-4)GlcNAc(b1-3)Gal(b1-4)GlcNAc(b1-2)[Gal(b1-3)GlcNAc(b1-3)Gal(b1-4)GlcNAc(b1-3)Gal(b1-4)GlcNAc(b1-6)]Man(a1-6)[Gal(b1-3)GlcNAc(b1-3)Gal(b1-4)GlcNAc(b1-3)Gal(b1-4)GlcNAc(b1-2)Man(a1-3)]Man(b1-4)GlcNAc(b1-4)[Fuc(a1-6)]GlcNAc
Outline: as §1

[20] = molecular target: Gal(b1-3)GlcNAc(b1-3)Gal(b1-4)GlcNAc(b1-6)[Gal(b1-3)GlcNAc(b1-3)]Gal(b1-4)Glc
Outline: as §1

[21] = molecular target: Gal(b1-3)GlcNAc(b1-3)Gal(b1-4)[Fuc(a1-3)]GlcNAc
Outline: as §1

[22] = molecular target: Gal(b1-3)GlcNAc(b1-3)Gal(b1-4)[Fuc(a1-3)]GlcNAc(b1-6)[Gal(b1-3)GlcNAc(b1-3)]Gal(b1-4)Glc
Outline: as §1

[23] = molecular target: Gal(b1-3)GlcNAc(b1-3)GalNAc
Outline: as §1

[24] = molecular target: Gal(b1-3)GlcNAc(b1-6)Gal(b1-4)GlcNAc
Outline: as §1

[25] = molecular target: Gal(b1-3)GlcNAc(b1-6)GalNAc
Outline: as §1

[26] = molecular target: Gal(b1-3)GlcNAc(b1-6)[Gal(b1-3)]GalNAc
Outline: as §1

Gal(b1-3)GlcNAc6S = molecular target: Gal(b1-3)GlcNAc6S
Outline: as §1

[27] = molecular target: Gal(b1-3)[Fuc(a1-4)]GlcNAc
Outline: as §1

[28] = molecular target: Gal(b1-3)[Fuc(a1-4)]GlcNAc(b1-2)Man
Outline: as §1

B1: MGL1 (Mus musculus), P49300 (protein)
chain: MIYENLQNSRIEEKTQEPGKAPSQSFLWRILSWTHLLLFSLGLSLLLLVVVSVIGSQNSQLRRDLGTLRATLDNTTSKIKAEFQSLDSRADSFEKGISSLKVDVEDHRQELQAGRDLSQKVTSLESTVEKREQALKTDLSDLTDHVQQLRKDLKALTCQLANLKNNGSEVACCPLHWTEHEGSCYWFSESEKSWPEADKYCRLENSHLVVVNSLEEQNFLQNRLANVVSWIGLTDQNGPWRWVDGTDFEKGFKNWAPLQPDNWFGHGLGGGEDCAHITTGGPWNDDVCQRTFRWICEMKLAKES
- glycan array binding signal (z-score) (Gal(a1-6)Glc): -0.433
- glycan array binding signal (z-score) (Gal(b1-2)Gal): -0.24
- glycan array binding signal (z-score) (Gal(b1-3)Gal): -0.039
- glycan array binding signal (z-score) (Gal(b1-3)Gal(b1-4)GlcNAc): -0.408
- glycan array binding signal (z-score) (Gal(b1-3)GalNAc): -0.112
- glycan array binding signal (z-score) [1]: -0.106
- glycan array binding signal (z-score) [2]: 0.981
- glycan array binding signal (z-score) (Gal(b1-3)GalNAc(b1-3)Gal): 0.104
- glycan array binding signal (z-score) [3]: 0.385
- glycan array binding signal (z-score) [4]: -0.076
- glycan array binding signal (z-score) [5]: -0.13
- glycan array binding signal (z-score) [6]: -0.087
- glycan array binding signal (z-score) [7]: -0.045
- glycan array binding signal (z-score) (Gal(b1-3)GlcNAc): -0.251
- glycan array binding signal (z-score) [8]: -0.042
- glycan array binding signal (z-score) [9]: 2.23
- glycan array binding signal (z-score) (Gal(b1-3)GlcNAc(b1-2)Man): 0.005
- glycan array binding signal (z-score) [10]: -0.284
- glycan array binding signal (z-score) [11]: -0.472
- glycan array binding signal (z-score) [12]: 0.528
- glycan array binding signal (z-score) [13]: 0.257
- glycan array binding signal (z-score) [14]: 0.139
- glycan array binding signal (z-score) [15]: 0.128
- glycan array binding signal (z-score) [16]: 0.095
- glycan array binding signal (z-score) [17]: 0.508
- glycan array binding signal (z-score) [18]: 0.85
- glycan array binding signal (z-score) [19]: 2.28
- glycan array binding signal (z-score) [20]: 0.418
- glycan array binding signal (z-score) [21]: 0.64
- glycan array binding signal (z-score) [22]: 0.471
- glycan array binding signal (z-score) [23]: -0.195
- glycan array binding signal (z-score) [24]: -0.011
- glycan array binding signal (z-score) [25]: 0.53
- glycan array binding signal (z-score) [26]: -0.643
- glycan array binding signal (z-score) (Gal(b1-3)GlcNAc6S): 0.828
- glycan array binding signal (z-score) [27]: 0.7
- glycan array binding signal (z-score) [28]: -0.101
